According to PubChem BioAssay AID1671194 (National Center for Advancing Translational Sciences (NCATS), 2021):
Out of some 140,000 compounds screened, about 240 (0.17%) were called active. The shares of active, inactive and inconclusive entries below differ from those in the screen. The call rests on the fitted dose curve; in most records, active means well fitted inhibition curve with a large enough effect; inconclusive means small, poorly fitted or top-dose-only effect; inactive means no such curve, though single readings can be large or run the other way. A potency beside an inconclusive call is a rough fit, not a confirmed value.

Test: Primary qHTS assay for inhibitors of alpha-synuclein gene (SNCA) expression; further: nearly all actives have a fitted effect of over 45% in size;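 on activity change, negative = inhibition: plate controls were DMSO cells for no effect and cell-free wells for full effect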
Settings: HEK-293 SNCA-luciferase knock-in, luminescence, 24 h; activity change, negative = inhibition: at 57.2 µM (top of the series) unless noted
Potency means the concentration at half of the fitted maximal effect; tags describe the fitted curve by direction and shape.

Activity change, negative = inhibition, inactive:
CC(=O)N1CCc2cc(S(=O)(=O)CCC(=O)N3CCCC(Cc4nncn4CC4CC4)C3)ccc21 (configuration not stated) -8.16%
Cc1ccc(F)c(OC2(C(=O)O)CCN(c3cnc4ccccc4n3)CC2)c1 -2.19%
CCCN1C(=O)CCc2cc(NC(=O)c3ccc4c(c3)OCO4)ccc21 37.4%
O=C(N[C@H]1CCN2C(=O)c3cc(-c4ccc(F)cc4F)ccc3NC(=O)[C@H]12)c1cccs1 -13.8%
CC(=O)Nc1cccc(-c2ccnc(-c3nnc(C)n3Cc3ccccc3)c2)c1 56.7% [at 87.6 µM]
CC(C)CNC(=O)c1nc(-c2ccc(Cl)cc2)c2cnccn12 -8.1% [at 87.6 µM]
CC1=C[C@@H](CNC(=O)CCCC(=O)O)[C@H](C(C)C)C[C@H]1Cc1nc2c(C)cccc2[nH]1 -4.5% [at 87.6 µM]
COc1cccc(-c2ccc(C(=O)N3CCC(NC(=O)C(C)(C)C)CC3)cc2)c1 0.335%
O=C(NC1CCN(c2cc(-c3ccc(F)cc3)[nH]n2)C1)c1ccccc1 (configuration not stated) 3.62%
CCN1C(=O)CCc2cc(NC(=O)c3ccc(F)cc3)ccc21 124%
COCC(=O)N1CCCN(Cc2cccnc2)c2ccccc21 38.7%
O=C(NCCc1ccccn1)[C@@H]1C[C@@H](c2ccc(F)cc2)N(CCOc2ccccc2)C1 10.5% [at 87.6 µM]
O=C(c1cccc(O)c1)N1CC=C(c2cnc3cnc(-c4ccccc4)cn23)CC1 -22.4% [at 87.6 µM]
O=C1COc2ccc(NCCc3ccccn3)nc2CN1Cc1ccc(C(F)(F)F)cc1 5.96%
Cc1ccnc(NC(=O)C2c3ccccc3C(=O)N(CC(C)C)C23CCCC3)c1 (configuration not stated) 4.86%
COc1ccc(NC(=O)C2CCN(C(=O)c3ncn4c3COC(c3ccc(F)cc3)C4)CC2)cc1F (configuration not stated) 43.2%
O=C(C1CCOCC1)N1CCC2(CN[S+](=O)([O-])c3cnccc3O2)C1 (configuration not stated) -14.6%
C[C@]1(CO)[C@H]2Cc3sc(NC(=O)c4ccc(F)cc4)nc3[C@@H](CC(=O)Nc3ccccc3)[C@]2(C)CC[C@H]1O 100%
CCOc1cccc(CN2CCC3(CC2)CN(C)CC3COC)c1 (configuration not stated) 8.9%
Cn1nc(C2CCNC2)c2c(C(=O)NCc3ccncc3)cc(C3CC3)nc21 (configuration not stated) -14.5%
COc1cccc(CN2C(=O)OC3(CCN(C(=O)Cc4ccccn4)CC3)C2(C)c2cccnc2)c1 (configuration not stated) -24.1%
O=C(Nc1ccc(Cl)cc1)N1CCCC(C(=O)N2CCC(c3ccccc3)CC2)C1 (configuration not stated) 17.3%
COc1ccc(CCC(=O)N2CCC(c3noc(COc4ccc(C)cc4)n3)C2)cc1 (configuration not stated) -10.5%
O=C(Nc1ccc(C(F)(F)F)cc1)N[C@H]1[C@H](O)[C@H](O)C[C@@H]1c1ccccc1 -18.9% [at 87.6 µM]
COc1ccccc1-c1cccc(CN2CCC(NC(=O)NC(C)C)CC2)c1 -1.65%
CCOCC1(C)COc2ccc(C(=O)NCc3ccc(F)cc3)cc2N1 (configuration not stated) 6.68% [at 87.6 µM]
COC1CCCN(c2cc(-c3ccsc3)nc3c(C)noc23)C1 (configuration not stated) 6.44% [at 87.6 µM]
CN(Cc1ccc(-c2ccccc2)cc1)C(=O)C(C)(C)C 117% [at 87.6 µM]
Cc1nn2c(=O)cc(COC(=O)c3cccc(NC(=O)CCc4ccccc4)c3)nc2s1 14.9%
COc1cccc(CC(=O)N2CCCOCCNC(=O)CC2)c1 7.81%

Potency, inconclusive:
COCC(=O)O[C@]1(CCN(C)CCCc2nc3ccccc3[nH]2)CCc2cc(F)ccc2[C@@H]1C(C)C 39.8 µM [inhibitor, single point]
Cc1ccccc1CS(=O)(=O)c1ncc(Cl)c(C(=O)Nc2nnc(C(C)C)s2)n1 39.8 µM [inhibitor, single point]
O=C(Cn1ccn2nc3c(c2c1=O)CCCC3)Nc1ccc2c(c1)OCO2 3.16 µM [inhibitor, single point]
C=CCNc1c(O)cc2c(O)c1C[C@@H](C)C[C@H](OC)[C@@H](O)[C@@H](C)C=C(C)[C@H](OC(N)=O)[C@@H](OC)C=CC=C(C)C(=O)N2 0.857 µM [inhibitor, full curve, poor fit]
COc1ccc(N2CCN(C(=O)c3cn(C)c4ccc(S(=O)(=O)N(C)C5CCCCC5)cc4c3=O)CC2)cc1 25.1 µM [inhibitor, partial curve, poor fit]
COc1cc2ccccc2cc1C(=O)Nc1cccc(-c2nc3ccccc3o2)c1 8.91 µM [inhibitor, partial curve, poor fit]
NS(=O)(=O)c1ccc(CCNC(=O)c2nnn3c2COC(c2ccc(F)cc2)C3)cc1 (configuration not stated) 2.82 µM [inhibitor, full curve, poor fit]
O=C(Nc1cccc(Nc2ncc(Br)c(NCCc3cnc[nH]3)n2)c1)N1CCCC1 21.5 µM [inhibitor, single point]
CCc1ccccc1NC(=O)c1cc2sc(Cl)cc2n1CC 35.5 µM [inhibitor, single point]
COCCNC(=O)c1ccc2c(c1)N(Cc1ccc(C(F)(F)F)cc1)C(=O)c1ccccc1S2 25.1 µM [inhibitor, single point]
CCC1CN(C(=O)N2CCC(C(=O)N3CCN(c4ccc(F)cc4)CC3)CC2)c2ccccc2O1 (configuration not stated) 39.8 µM [inhibitor, single point]
COc1ccc(NS(=O)(=O)c2ccc3c(c2)CCCN3C(=O)C2CCC2)cc1OC 12.6 µM [inhibitor, partial curve, poor fit]
CCOCc1nc(C2CCCN(C(=O)COC)C2)no1 (configuration not stated) 7.94 µM [inhibitor, full curve, poor fit]
CCOc1ccc2c(n1)CCN(C(=O)C1CCC1)C2 3.98 µM [inhibitor, partial curve, poor fit]
CCOC(=O)c1cccc(NC(=O)Nc2ccc3c(c2)N(C)C(=O)c2ccccc2S3)c1 39.8 µM [inhibitor, single point]
CCc1nc(C)c(C(=O)N[C@@H]2c3ccccc3C3(CCNCC3)[C@H]2OC)o1 20 µM [inhibitor, single point]
O=C(Nc1ccc(Cl)cc1Cl)c1cnn2c1CN([S+](=O)([O-])c1cccc(C(F)(F)F)c1)CC2 7.08 µM [inhibitor, single point]
COc1ccccc1CC(=O)N1CCC(c2n[nH]c(=O)n2Cc2ccc(F)cc2)CC1 7.94 µM [inhibitor, single point]
O=C([C@@H]1C[C@H](Oc2cccnc2)CN1C(=O)c1cccnc1)N1CCCC1 8.91 µM [inhibitor, partial curve, poor fit]
COCc1cc(=O)n(CC(=O)Nc2cc(OC)c(OC)c(OC)c2)c(N2CCOCC2)n1 39.8 µM [inhibitor, single point]
O=C1CCC(N2C(=O)c3ccccc3C2=O)C(=O)N1 (configuration not stated) 42.9 µM [inhibitor, single point]
CCCN1CC(Oc2cccc(C(=O)N3CCOCC3)c2)C1 3.55 µM [inhibitor, single point]
Cc1nc(CC2CCN(Cc3cc4n(n3)CCNC4)CC2)no1 4.47 µM [inhibitor, single point]
O=C(Cc1ccc(OC(F)(F)F)cc1)N1CC(CNc2cccnc2)C2(C1)CN(c1ccccc1)C2 (configuration not stated) 39.8 µM [inhibitor, single point]
COc1cccc(C(=O)NC2CCN(c3nccc(Nc4ccc(C)cc4)n3)CC2)c1 35.5 µM [inhibitor, single point]
COc1ccc(-n2nc(C3CCCN([S+](=O)([O-])c4cccc(C(F)(F)F)c4)C3)[nH]c2=O)cc1 (configuration not stated) 1.26 µM [inhibitor, full curve, poor fit]
COCCCn1c(=O)c(C(=O)Nc2cccc(Cl)c2)nc2cccnc21 17.8 µM [inhibitor, single point]
COc1ccc(CC(=O)Nc2sc3c(c2C(=O)Nc2cccc(Cl)c2)CCCCC3)cc1 28.2 µM [inhibitor, single point]
O=C(Cn1nc2c(cc1=O)CCCCC2)NCC1CCOCC1 3.16 µM [inhibitor, single point]
Cn1cc(C(=O)N2CCC(N3C(=O)C4(CCCCC4)C3c3ccncc3)CC2)cn1 (configuration not stated) 10 µM [inhibitor, partial curve, poor fit]
O=C(NC1CC(=O)N(CCCc2ccccc2)C1)c1ccc2c(c1)OCO2 (configuration not stated) 39.8 µM [inhibitor, single point]
Cc1noc(-c2ccc(OC(F)(F)F)cc2)c1C(=O)NCCCOC(C)C 2.82 µM [inhibitor, full curve, poor fit]
C[S+](=O)([O-])N1CCC2(C1)N=C(c1ccncc1)C(=O)N2 (configuration not stated) 5.62 µM [inhibitor, partial curve, poor fit]
CN1CCN([C@H]2CCN(C(=O)NCCc3ccccc3)C[C@H]2CCC(=O)O)CC1 7.94 µM [inhibitor, full curve]
COc1ccc(-c2oc3ncn4nc(-c5ccccc5O)nc4c3c2-c2ccc(OC)cc2)cc1 3.98 µM [inhibitor, full curve]
COc1cccc(Nc2ccc3cc(S(=O)(=O)N4CCC(C)CC4)ccc3n2)c1 39.8 µM [inhibitor, partial curve, poor fit]
O=C(Cc1ccccc1)N1CCC(c2n[nH]c(=O)n2Cc2ccc(F)cc2)CC1 8.91 µM [inhibitor, single point]
